Test results reported in PubChem BioAssay AID624418 (National Center for Advancing Translational Sciences (NCATS), 2012).
About 530 (0.13%) of roughly 410,000 compounds were called active. Inconclusive results, whose numbers are uncertain, are shown with a selection of clear calls. Calls come from the whole dose curve; as a rule, active = well fitted inhibition curve with a large enough effect; inconclusive = small, poorly fitted or top-dose-only effect, or another doubt; inactive = no such curve, though single readings can be large or run the other way. Potencies beside an inconclusive call are fits to weak or partial responses and may not hold up. Where a SMILES comes first, the peptide text is derived from it. The star is where a group is joined. ONp = O=[N+]([O-])c1ccc(O*)cc1; Cbz = O=C(OCc1ccccc1)*

assay: qHTS of GLP-1 Receptor Inverse Agonists: Cytotox Screen; details: HEK293 cAMP-luciferase reporter cells, luminescence, 24 h; activity change, negative = inhibition: at 38.3 µM (top of the series) unless noted
In short: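 Seeding density was 200 cells/uL; after overnight-length (12 h) culture, 23 nL compounds went on for 24 h at 37 °C. Readout used a luciferase detection reagent, luminescence taken after 12 min at room temperature.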
% is set by controls: 0 for no effect and ±100 for the full control effect; potency is the fitted concentration of half-maximal effect.

| Structure (SMILES) | Potency | activity change, negative = inhibition |
| --- | --- | --- |
| Cc1ccc(OCC(=O)Nc2ccc3c(c2)nc(CCN2CCC(C)CC2)n3C)cc1 | inconclusive: 22.4 µM [inhibitor, partial curve, poor fit] | – |
| N#C/C(=C\c1ccc(-c2ccccc2[N+](=O)[O-])o1)C(=O)N1CCOCC1 | inconclusive: 28.2 µM [inhibitor, single point] | – |
| COc1ccc(Cl)cc1NC(=O)N1CCN(Cc2cc(=O)n3nc(-c4ccccc4)sc3n2)CC1 | – | inactive: 9.1% |
| O=C1CCSC2(C(=O)N(Cc3ccc(F)cc3)c3ccccc32)N1c1ccc(Cl)cc1 (configuration not stated) | – | inactive: -11.6% |
| O=C(Nc1ccc(F)cc1)C1CCC(N2C(=O)c3ccccc3C2=O)CC1 (configuration not stated) | inconclusive: 22.4 µM [inhibitor, single point] | – |
| C=C(C)C(=O)Nc1cccc(C2=NOC3(C2)C[C@@H](C(N)=O)N(C(=O)c2ccc(Cl)cc2)C3)c1 (some centres not stated) | – | inactive: -32.2% |
| CC1=C(C(=O)OCc2ccc3c(c2)OCO3)C(c2ccc(F)cc2)NC(=O)N1 (configuration not stated) | inconclusive: 5.01 µM [inhibitor, partial curve] | – |
| CCOc1c(Br)cc(C2CC(=O)Nc3cc4c(cc32)OCO4)cc1OC (configuration not stated) | inconclusive: 7.94 µM [inhibitor, partial curve, poor fit] | – |
| COc1ccc(C2C=C(c3ccc(Cl)cc3)Nc3nc(-c4ccc(Cl)cc4)nn32)cc1 (configuration not stated) | – | inactive: 72.9% |
| CCOC(=O)c1ccc(NC(=O)CCS(=O)(=O)c2cccc3nonc23)cc1 | inconclusive: 28.2 µM [inhibitor, single point] | – |
| Cc1ccc(C(OCC(O)CNCc2ccc(F)cc2)c2ccccc2)cc1 (configuration not stated) | inconclusive: 28.2 µM [inhibitor, single point] | – |
| CCCCCCCCCCCCCCCC[n+]1ccccc1 | inconclusive: 14.1 µM [inhibitor, partial curve, poor fit] | – |
| NC(=O)CC(NC(=O)Cc1cccc2ccccc12)c1ccc(NCCOc2ccccc2)c([N+](=O)[O-])c1 (configuration not stated) | inconclusive: 28.2 µM [inhibitor, single point] | – |
| COc1ccc(C2c3cc(OC)c(OC)cc3CC(=O)N2c2ccc(C)c(F)c2)cc1 (configuration not stated) | inconclusive: 10 µM [inhibitor, partial curve] | – |
| CC1(C)CCc2cc(-c3ccn(S(=O)(=O)c4ccccc4Cl)n3)ccc2O1 | inconclusive: 28.2 µM [inhibitor, single point] | – |
| COCCNC(=O)/C(C#N)=C/C=C/c1ccccc1[N+](=O)[O-] | inconclusive: 10 µM [inhibitor, single point] | – |
| Cc1ccc(-c2nnc(Nc3ccc(C(=O)N(C)C)cc3)c3ccccc23)cc1S(=O)(=O)N(C)C | – | inactive: -11% |
| CCOC(=O)Cn1nc2sc3ccccc3n2c(=O)c1=O | inconclusive: 1.58 µM [inhibitor, partial curve, poor fit] | – |
| Cc1cc(C)c(CN2CCC(CO)(CCOc3ccccc3)CC2)cc1C | inconclusive: 28.2 µM [inhibitor, single point] | – |
| O=C(Nc1cccc(-c2cccc(Cl)c2)c1)C1CCN(CC2CCOC2)CC1 (configuration not stated) | inconclusive: 7.94 µM [inhibitor, partial curve, poor fit] | – |
| COc1ccc(NCc2nnc(SCC(=O)Nc3nc(-c4ccccc4)cs3)n2-c2ccccc2)cc1 | inconclusive: 31.6 µM [inhibitor, single point] | – |

| Structure (SMILES) | Potency | activity change, negative = inhibition |
| --- | --- | --- |
| Cc1ccc(OCC(=O)Nc2ccccc2OCc2cc(=O)n3ccccc3n2)cc1C | – | inactive: 10.1% |
| CCN(CC(=O)NC1CC1)S(=O)(=O)c1ccccc1 | inconclusive: 10 µM [inhibitor, partial curve] | – |
| O=C(C[C@@H]1C[C@H]2c3cc(NC(=O)C4CCC4)ccc3O[C@H]2[C@@H](CO)O1)NCc1ccc(-c2ccccc2)cc1 | inconclusive: 11.2 µM [inhibitor, single point] | – |
| O=C(Nc1ncc([N+](=O)[O-])s1)c1cccs1 | inconclusive: 10 µM [inhibitor, partial curve] | – |
| COc1ccc(CCNC(=O)CN2C(=O)NC3(CCCCC3C)C2=O)cc1 (configuration not stated) | – | inactive: -6.69% |
| Cc1ccc2nc3c(c(N)c2c1)CCN3C | inconclusive: 10 µM [inhibitor, partial curve, poor fit] | – |
| C[C@@H]1CN([C@H](C)CO)C(=O)c2cc(NS(=O)(=O)c3ccc(F)cc3)ccc2O[C@@H]1CN(C)Cc1ccc(Cl)c(Cl)c1 | inconclusive: 11.2 µM [inhibitor, single point] | – |
| Cc1ccc2c(c1)c1c(n2CC(O)CN2CCCCCC2)CCCC1 (configuration not stated) | inconclusive: 10 µM [inhibitor, single point] | – |
| CN1C(=O)C(N=Nc2ccc([N+](=O)[O-])cc2)SC1=S (configuration not stated) | inconclusive: 8.91 µM [inhibitor, partial curve] | – |
| CCOc1ccc(CNC(=O)c2ccc3c(c2)nc2n3CCOC2)cc1OC | – | inactive: 12.8% |
| CCOc1cc(/C=C\[N+](=O)[O-])ccc1OCC(=O)Nc1ccccc1C | inconclusive: 2 µM [inhibitor, partial curve, poor fit] | – |
| COc1ccc(CN(C)C2CCCCC2)c(C)c1C | inconclusive: 7.08 µM [inhibitor, partial curve, poor fit] | – |
| Cc1cc(C)cc(C(=O)Nc2nc3ccccc3[nH]2)c1 | inconclusive: 10 µM [inhibitor, partial curve, poor fit] | – |
| CCOc1ccccc1Nc1cc(C)nc2ccc(C)cc12 | inconclusive: 28.2 µM [inhibitor, single point] | – |
| CC(C)CNC(=O)NC1(C(F)(F)F)Oc2ccccc2O1 | – | inactive: 23.8% [at 7.66 µM] |
| COc1cc2ccccc2cc1C(=O)N1CCc2ccccc21 | inconclusive: 10 µM [inhibitor, single point] | – |
| O=C(/C=C/C=C/c1ccccc1)CC1(O)C(=O)N(CCc2ccccc2)c2ccccc21 (configuration not stated) | inconclusive: 28.2 µM [inhibitor, single point] | – |
| COc1ccc(OCc2cc(C(=O)NCCN3CCCc4ccccc43)no2)c(Cl)c1 | inconclusive: 20 µM [inhibitor, single point] | – |
| O=C(NCc1ccc(F)cc1Cl)C1CCN(S(=O)(=O)N2CCC3(CC2)OCCO3)CC1 | inconclusive: 28.2 µM [inhibitor, single point] | – |
| Cc1sc(-c2cc3c([nH]c2=O)CC(c2ccccc2)CC3=O)nc1-c1ccc(Cl)cc1 (configuration not stated) | inconclusive: 1.41 µM [inhibitor, full curve, poor fit] | – |
| OCC1(Cc2cccc(C(F)(F)F)c2)CCN(Cc2cc(F)cc(F)c2)CC1 | inconclusive: 10 µM [inhibitor, partial curve] | – |

| Structure (SMILES) | Potency | activity change, negative = inhibition |
| --- | --- | --- |
| O=C(CNC(=O)OCc1ccccc1)NCC(=O)Oc1ccc([N+](=O)[O-])cc1 (Cbz-Gly-Gly-ONp) | inconclusive: 17.8 µM [inhibitor, partial curve, poor fit] | – |
| CCCCS(=O)(=O)c1oc(-c2ccc(F)cc2)nc1S(=O)(=O)c1ccc(C)cc1 | inconclusive: 25.1 µM [inhibitor, single point] | – |
| S=c1[nH]nc(-c2ccco2)n1C1CCCCC1 | inconclusive: 25.1 µM [inhibitor, single point] | – |
| COc1ccc(/C=N/OCC(=O)N=Nc2c(O)[nH]c3ccc(Br)cc23)cc1OC | inconclusive: 28.2 µM [inhibitor, single point] | – |
| Cc1ccc(C)c(N2CCN(C(=O)CCCOc3cc(=O)n(C)c4ccccc34)CC2)c1 | inconclusive: 31.6 µM [inhibitor, partial curve, poor fit] | – |
| C=CCNCCOCCOc1ccc(Cl)cc1C(C)(C)C | – | inactive: -25.4% |
| COc1ccc(N=CC2CCCCC2=O)c([N+](=O)[O-])c1 (configuration not stated) | inconclusive: 11.2 µM [inhibitor, partial curve, poor fit] | – |
| C=CCn1c(SCC(=O)NC2CCCC2)nnc1-c1ccccn1 | – | inactive: 0.511% |
| COc1cc(/C=N/NC(=O)C(=O)/C=C2\NC3(CCCC3)Cc3ccccc32)ccc1O | inconclusive: 10 µM [inhibitor, single point] | – |
| O=C1C(c2ccc(F)cc2)N(CCc2ccccc2)C(=O)CN1C1CCCCCC1 (configuration not stated) | – | inactive: -4.56% |
| CCCCNc1oc(-c2ccc(COc3ccc(OC)cc3)o2)nc1C#N | – | inactive: 0.34% |
| CC(C)(C)c1ccc(N/N=C(\C#N)S(=O)(=O)C(C)(C)C)cc1 | inconclusive: 11.2 µM [inhibitor, single point] | – |
| COc1cc(C(=O)Nc2c(C)cc(C)cc2C)c(Br)c(OC)c1OC | inconclusive: 2.51 µM [inhibitor, partial curve, poor fit] | – |
| CC(C)(C)NNC(=S)Nc1cccc(F)c1 | inconclusive: 15.8 µM [inhibitor, partial curve, poor fit] | – |
| Cc1ccc(-n2c(-c3ccc(Cl)cc3Cl)n[nH]c2=S)cc1 | inconclusive: 22.4 µM [inhibitor, single point] | – |
| CC(OC(=O)c1cc(Br)ccc1O)C(=O)Nc1ccc(S(=O)(=O)N2CCCC2)cc1 (configuration not stated) | inconclusive: 28.2 µM [inhibitor, single point] | – |
| Cc1ccc(S(=O)(=O)N(C)C)cc1NC(=O)CSc1nc2ccccc2[nH]1 | inconclusive: 4.47 µM [inhibitor, full curve, poor fit] | – |
| c1ccc(C[C@H]2CN=C(Nc3ccccc3)N2CCCC2CCCCC2)cc1 | inconclusive: 28.2 µM [inhibitor, single point] | – |
| CNC(=S)N/N=C/c1c(Cl)cccc1Cl | inconclusive: 10 µM [inhibitor, partial curve, poor fit] | – |
| CCNC(=S)N/N=C1\C(=O)c2cccc3cccc1c23 | inconclusive: 2.51 µM [inhibitor, full curve] | – |
